Measured values reported in PubChem BioAssay AID463173 (ICCB-Longwood Screening Facility, Harvard Medical School, 2010).
Among all 52,000 compounds or so, about 1,700 (3.3%) were called active. Cut-off read from the data, not from the text of the source: active = survival mostly below about 52% (no sharp cut-off); inactive = mostly above about 56%. This is one part of the list.

The compounds below were run on Wild type (assay: S. aureus survival, RN4220 and DeltatarO strains – OD600, teichoic acid synthesis inhibitors, primary screen (AID 463173)). Conditions: S. aureus RN4220 wild type/DeltatarO growth, OD600, 18 h, active compounds read low, screened at 18.75 µg/mL (by protocol).
In the case of `Cn1c(=O)c2sccc2n2c(CCCC(=O)NC3CCCCC3)nnc12`, the survival is reported as inactive: 98%. With `CCn1c(Cc2ccccc2)nnc1SCC(=O)N(C)C1CCCCC1` the survival was inactive: 108%. In the case of `Cc1ccc(Cl)cc1N1CCN(S(=O)(=O)c2cc(Br)cc3c2N(C(=O)C2CC2)CC3)CC1`, the survival is reported as inactive: 81%. In the case of `O=C(Cn1c(-c2ccccc2)noc1=O)Nc1ccc(N2CCCCCC2)cc1`, the survival is reported as inactive: 111%. In the case of `COc1ccc(-c2nn(-c3ccccc3)cc2C2NC(=O)NC(C)=C2C(=O)OC(C)C)cc1Cl` (stereo not drawn), the survival is reported as inactive: 83%. `CCOC(=O)CC(NC(=O)CCc1c(C)nc2c(c1C)c(=O)n(C)c(=O)n2C)c1ccc(OCC)c(OC)c1` (stereo not drawn) was tested, and the survival was inactive: 82%. `CC(=O)Nc1ccc(NC(=O)C(Cc2ccccc2)NS(=O)(=O)c2ccc3c(c2)oc(=O)n3C)cc1` (stereo not drawn) was tested, and the survival was inactive: 83%. In the case of `CC(C)c1ccc(NS(=O)(=O)c2ccc3[nH]cc(C(=O)NCCc4ccccc4)c(=O)c3c2)cc1`, the survival is reported as inactive: 102%. `CCN1CCN(c2ccc(N=Cc3cccc(C)c3O)cc2)CC1` was tested, and the survival was inactive: 109%. `CCOc1ccc(S(=O)(=O)Nc2cc3c(C(=O)OC)c(COC)oc3c3ccccc23)cc1` was tested, and the survival was inactive: 67%. `Cc1ccc(-n2nc(C)c3c(C)cc(=O)n(CC(=O)NC(C)c4ccccc4)c32)cc1` (stereo not drawn) was tested, and the survival was inactive: 143%. With `COc1ccc(S(=O)(=O)N(CC(=O)Nc2cc(Cl)ccc2C)Cc2ccccc2)cc1OC` the survival was inactive: 92%. In the case of `CCn1nc(C)c2c(-c3ccccc3)cc(=O)n(C(C)C(=O)NCCc3ccc(OC)c(OC)c3)c21` (stereo not drawn), the survival is reported as inactive: 73%. `CCOc1cc(-c2ccc(OC(=O)c3ccc(OC)cc3)c(OC)c2)cc(=O)c2c(C)oc(C)c12` was tested, and the survival was inactive: 74%. In the case of `Cc1ccc(N(CC(=O)Nc2cc(C)ccc2C)S(=O)(=O)c2c(C)noc2C)cc1`, the survival is reported as inactive: 86%. With `Cc1ccc(N=C2NC(=O)CC(C(=O)Nc3cc(C(F)(F)F)ccc3Cl)S2)cc1` (stereo not drawn) the survival was inactive: 91%. For `O=S(=O)(c1ccc(Cl)cc1)c1nnn2c1nc(NCc1ccc3c(c1)OCO3)c1sccc12`, the survival was inactive: 83%. With `CC(C)C(=O)N(c1nnc(-c2ccncc2)s1)C(C)C` the survival was inactive: 111%. `CCN(CC)c1nc2c(c(=O)n(Cc3ccccc3)c(=O)n2C)n1Cc1ccccc1` was tested, and the survival was inactive: 104%. `CCOc1ccccc1NC(=O)C1CCN(S(=O)(=O)c2ccc3c(c2)CCCN3C(C)=O)CC1` was tested, and the survival was inactive: 71%. With `CCCCN(CC)CCNC(=O)C1CCCN(c2ncnc3onc(C)c23)C1` (stereo not drawn) the survival was inactive: 77%. `COc1ccc(-n2c(SCC(=O)c3ccccc3)nc3c([nH]c4ccccc43)c2=O)cc1` was tested, and the survival was inactive: 88%. For `COc1cc(Cl)c(NS(=O)(=O)c2cc(-c3cc(C)no3)ccc2OC)c(OC)c1`, the survival was inactive: 89%. In the case of `CC(=O)c1ccc(NC(=O)c2ccc(-n3cnnc3)cc2)cc1`, the survival is reported as inactive: 65%. In the case of `CCC(=O)N1c2ccccc2CC1C(=O)NCc1ccc(N(C)C)cc1` (stereo not drawn), the survival is reported as inactive: 91%. `Cc1ccc(COC(=O)c2[nH]c3c(c2C)C(=O)CC(c2ccc(N(C)C)cc2)C3)cc1` (stereo not drawn) was tested, and the survival was inactive: 90%. In the case of `CCS(=O)(=O)c1ncc(Cl)c(C(=O)Nc2ccccc2)n1`, the survival is reported as inactive: 70%. For `COc1ccc2nc(SC)c(C#N)cc2c1`, the survival was inactive: 109%. For `COC(=O)c1sccc1S(=O)(=O)N(CC(=O)Nc1ccccc1F)c1ccccc1`, the survival was inactive: 67%. With `CCCn1c(=N)n(CC(=O)C(C)(C)C)c2ccccc21` the survival was inactive: 117%. With `CCOc1ccc(C(=O)c2oc3ccccc3c2NC(=O)c2cc(-c3ccc(Cl)cc3)on2)cc1` the survival was inactive: 89%. With `COc1ccc(-c2nnc(SCC(=O)N(C)C3CCCCC3)o2)cc1OC` the survival was inactive: 81%. For `O=c1oc2c3c(ccc2c2ccccc12)OCN(Cc1ccccc1Cl)C3`, the survival was inactive: 70%. `O=S(=O)(NCC(c1ccco1)S(=O)(=O)c1cccs1)c1ccc(Cl)cc1` (stereo not drawn) was tested, and the survival was inactive: 81%. `CN(Cc1ccccc1)c1ncnc2c1nnn2C` was tested, and the survival was inactive: 68%. In the case of `CCc1nn(CC(=O)N(C)Cc2ccccc2)c(=O)c2cc3sccc3n12`, the survival is reported as inactive: 106%. For `CC(=O)c1cccc(NS(=O)(=O)c2cc(-c3cnc(C4CC4)o3)ccc2C)c1`, the survival was inactive: 113%. For `Cc1ccc(CSCCC(=O)NCc2ccc(F)cc2Cl)cc1`, the survival was inactive: 133%. `Cc1cccc(C(=O)n2nc(-c3cccnc3)nc2NCc2ccccc2)c1` was tested, and the survival was inactive: 106%. For `CCn1cc(C(=O)NCCCOC)c(=O)c2cc(S(=O)(=O)N3CCCC3)ccc21`, the survival was inactive: 84%. For `Cc1ccc(C(=O)NCCc2ccc(S(N)(=O)=O)cc2)cc1-n1cnc2cccnc21`, the survival was inactive: 72%. In the case of `COC(=O)c1c(NC(=O)Cc2coc3ccc(C(C)C)cc23)sc2c1CCC2`, the survival is reported as inactive: 115%. In the case of `Cc1ccc(NC(=O)Nc2ccccc2OCc2cc(=O)n3ccccc3n2)c(Cl)c1`, the survival is reported as inactive: 69%. For `O=C(CCCCn1c(=O)c2ccccc2n(CC(=O)Nc2ccc(F)cc2F)c1=O)NCCc1ccccc1`, the survival was inactive: 98%. In the case of `COc1cc(C(=O)Nc2ccc3c(c2)N(C2CCCC2)C(=O)c2ccccc2S3)cc(OC)c1OC`, the survival is reported as inactive: 64%. With `CCOc1ccccc1NC(=O)C1CCCN1S(=O)(=O)c1ccc2c(c1)C(C)(C)C(=O)N2C` (stereo not drawn) the survival was inactive: 85%. With `CC(C)Oc1ccc(C(=O)NCC(c2ccc(N(C)C)cc2)N2CCCC2)cc1` (stereo not drawn) the survival was inactive: 47%. `CCOc1ccccc1NC(=O)CCNS(=O)(=O)c1cccc2nonc12` was tested, and the survival was inactive: 65%. With `Cc1ccc(C)c(NC(=O)Cn2cc(C(=O)c3cccs3)c3ccccc32)c1` the survival was inactive: 143%. With `CCC(C(=O)NCc1ccc(OC)c(OC)c1)n1nc(C)c2c(C)n(-c3ccc(C)cc3)nc2c1=O` (stereo not drawn) the survival was inactive: 70%. In the case of `CC(C)N1CC(C(=O)Nc2ccccc2)CC1=O` (stereo not drawn), the survival is reported as inactive: 111%. In the case of `Cc1ccc(C(=O)COC(=O)c2cccc(NC(=O)c3ccc(Cl)cc3Cl)c2)cc1`, the survival is reported as inactive: 81%. In the case of `CCOC(=O)c1c(NC(=O)c2cc3nc(-c4ccc(Br)cc4)cc(C(F)(F)F)n3n2)sc(C(C)=O)c1C`, the survival is reported as inactive: 77%. With `Cc1ccc(NS(=O)(=O)c2cc(-c3cnc(C4CC4)o3)ccc2C)cc1Cl` the survival was inactive: 152%. In the case of `Cc1cc(NC(=O)c2ccc3c(c2)OCCO3)cc(-c2nc3ccccc3o2)c1O`, the survival is reported as inactive: 86%. In the case of `COc1ccc(NC(=O)N2CCOc3ccc(Cl)cc32)cc1`, the survival is reported as inactive: 82%. In the case of `Nc1c(C(=O)Nc2ccccc2F)sc2nc3c(cc12)CCCCCC3`, the survival is reported as inactive: 93%. For `O=C(/C=C/c1ccccc1)NC(O)C(=O)c1ccccc1` (stereo not drawn), the survival was inactive: 107%. In the case of `COc1ccc(Cc2nc3c4cnn(-c5ccccc5F)c4ncn3n2)cc1`, the survival is reported as inactive: 88%. For `COc1ccc(Cl)cc1N(C)C(=O)c1cc2c(=O)oc3ccc(C)cc3c2s1`, the survival was inactive: 85%. With `CCc1ccc(NC(=O)CCNS(=O)(=O)c2ccc3c(c2)oc(=O)n3C)cc1` the survival was inactive: 71%. `CCOC(=O)c1ccccc1NC(=O)CN1CCCN(Cc2cccc(Cl)c2)S1(=O)=O` was tested, and the survival was inactive: 75%. With `CCCCNC(=O)c1cc(-c2ccc(OC)cc2)nc2n[nH]c(-c3cccc([N+](=O)[O-])c3)c12` the survival was inactive: 80%. With `CCc1ccccc1NC(=O)CN1CCCN(Cc2cc(C)ccc2C)S1(=O)=O` the survival was inactive: 83%. For `CCN(CC)c1ccc(C(=O)NCc2ccc3c(c2)CCN3C(=O)c2ccc(F)cc2)cc1`, the survival was inactive: 56%. For `Cc1ccc(-n2nc(C)c3c(C(=O)NCCc4ccccc4)cc(C)nc32)cc1`, the survival was inactive: 79%. With `Cc1ccc(CNC(=O)c2ccc3c(c2)nc2n3CCOC2)cc1` the survival was inactive: 81%. In the case of `Cc1ccc(C)c(-n2c(SCC(=O)NCC(C)C)nnc2-c2cccnc2)c1`, the survival is reported as inactive: 104%. In the case of `COc1ccccc1-c1cc(C(=O)Nc2cc(OC)c(OC)c(OC)c2)no1`, the survival is reported as inactive: 78%. `COc1cc(Cc2ccc(N)c(OC)c2)ccc1N` was tested, and the survival was inactive: 104%. With `CCN(CC)CCCNC(=O)c1nn(C)c2c1CSc1ccccc1-2` the survival was inactive: 91%. With `COc1ccc(C(=O)NNc2ncnc3c2cnn3-c2cccc(Cl)c2)cc1OC` the survival was inactive: 73%. With `COc1ccc(C(C)=O)cc1CSc1nc(NCCc2ccccc2)c2ccccc2n1` the survival was inactive: 47%. For `CCCS(=O)(=O)c1c(S(=O)(=O)CCC)c2cc(CC)ccn2c1C(=O)c1ccc(Cl)cc1`, the survival was inactive: 90%. With `Cc1cccc(N(CC(=O)NCCSCc2cccc(Cl)c2)S(=O)(=O)c2ccccc2)c1C` the survival was inactive: 65%. With `COc1ccc(NC(=O)CCc2nc3c(C)nn(-c4ccc(C)cc4)c3n(C)c2=O)cc1` the survival was inactive: 72%. With `Cc1ccc(NC(=O)C2CCN(S(=O)(=O)c3c(C)noc3/C=C/c3cccs3)CC2)cc1F` the survival was inactive: 82%. With `COc1ccc(Cl)cc1CNCCSc1nnnn1-c1ccccc1` the survival was inactive: 68%. `COc1ccc(C2NC(=O)N(C)C3=C2C(=O)N(c2cccc(C(=O)O)c2)C3)cc1` (stereo not drawn) was tested, and the survival was inactive: 89%. `O=C(CN1C(=O)COc2ccccc21)N(Cc1ccccc1)Cc1ccccn1` was tested, and the survival was inactive: 112%. With `COc1ccc(N2C(=O)Cc3cc(OC)c(OC)cc3C2c2ccc(F)cc2)cc1` (stereo not drawn) the survival was inactive: 87%. With `CC(CCc1ccccc1)NC(=O)CSc1n[nH]c(-c2ccc(F)cc2)n1` (stereo not drawn) the survival was inactive: 134%. With `COc1ccc(CNC(=O)CN2C(=O)CCn3nc(-c4ccccc4)cc32)c(OC)c1` the survival was inactive: 88%. In the case of `COc1ccc(S(=O)(=O)Nc2cc3c(C(=O)OC(C)C)c(C)oc3c3ccccc23)cc1`, the survival is reported as inactive: 63%. In the case of `CCN(CC)C(=O)Cn1cnc2ccccc2c1=O`, the survival is reported as inactive: 97%. `COc1ccc(-c2ccc(CCC(=O)O)n2-c2ccccc2O)cc1` was tested, and the survival was inactive: 110%. For `CC12CC(C(C#N)=C(N)N1)c1ccccc1O2` (stereo not drawn), the survival was inactive: 116%. `Cc1cccc(Cn2cc(C(=O)Nc3cc(F)ccc3F)ccc2=O)c1` was tested, and the survival was inactive: 81%.
